In all, about 33,000 sequences were measured (“E-score (-0.5 to 0.5)”: median about -0.012, highest 2% from about 0.29 on). The list shows a part of the results.
biological target: T1, Ybr033w (UniProt P38073); test: PBM E-score (8-mer binding enrichment) (E-score (-0.5 to 0.5)); higher = stronger / more preferred TF binding; most listed sequences are background and not binding sites; details: protein concentration: 200 nM; construct: GST-full length
T1 sequence: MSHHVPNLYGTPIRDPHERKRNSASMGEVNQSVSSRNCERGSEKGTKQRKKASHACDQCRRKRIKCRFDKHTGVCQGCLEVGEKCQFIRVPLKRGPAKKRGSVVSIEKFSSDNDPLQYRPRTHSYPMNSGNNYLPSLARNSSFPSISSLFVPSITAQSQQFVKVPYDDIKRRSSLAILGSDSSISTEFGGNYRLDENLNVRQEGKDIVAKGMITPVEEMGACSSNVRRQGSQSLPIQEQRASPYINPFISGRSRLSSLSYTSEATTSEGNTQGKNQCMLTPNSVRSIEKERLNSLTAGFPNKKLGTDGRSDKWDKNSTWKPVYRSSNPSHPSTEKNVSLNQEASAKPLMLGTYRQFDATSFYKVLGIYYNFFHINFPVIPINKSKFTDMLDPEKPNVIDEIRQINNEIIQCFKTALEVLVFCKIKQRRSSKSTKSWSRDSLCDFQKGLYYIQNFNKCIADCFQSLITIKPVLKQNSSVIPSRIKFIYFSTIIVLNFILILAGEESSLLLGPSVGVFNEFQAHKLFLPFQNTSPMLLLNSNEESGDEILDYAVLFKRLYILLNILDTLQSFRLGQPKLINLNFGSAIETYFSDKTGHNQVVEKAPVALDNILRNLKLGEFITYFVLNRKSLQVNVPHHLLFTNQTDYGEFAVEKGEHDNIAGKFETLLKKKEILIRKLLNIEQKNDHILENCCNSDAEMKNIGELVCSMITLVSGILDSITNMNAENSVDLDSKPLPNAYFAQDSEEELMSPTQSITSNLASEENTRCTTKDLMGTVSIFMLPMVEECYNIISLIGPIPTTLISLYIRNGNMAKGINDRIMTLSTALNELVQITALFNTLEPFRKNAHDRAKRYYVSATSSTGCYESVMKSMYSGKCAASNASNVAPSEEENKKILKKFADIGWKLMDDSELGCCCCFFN
Outline: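 The E-score, a modified Wilcoxon-Mann-Whitney statistic, was computed by the Universal PBM Analysis Suite for every ungapped eight-base word pooled with its reverse complement. Scans behind it were normalised with masliner after bound GST-tagged yeast transcription factors were detected with fluorescent anti-GST. The proteins, at about 100-200 nM, had been applied to universal all-10-mer Agilent arrays made double-stranded by primer extension.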

Compared with ACGATAGT, GGAGTTCA is lower in “PBM E-score” value: 0.188 for the first, 0.0457 for the second.

Compared with AGCAATGA, TGATCACA is lower in “PBM E-score” value: 0.13 for the first, -0.021 for the second.

Going from AGCAACGG to CTGGTGTC, the “PBM E-score” value falls from 0.0639 to -0.153.

Compared with ATTTTTAG, ACTCACGA is lower in “PBM E-score” value: 0.179 for the first, -0.00501 for the second.

Compared with CACAATCC, AAGGAGCA is lower in “PBM E-score” value: 0.0977 for the first, -0.0833 for the second.

Compared with CTCGACAG, AACGAACT is higher in “PBM E-score” value: -0.106 for the first, 0.0287 for the second.

Compared with CCAAACTA, CGGAAAGA is lower in “PBM E-score” value: 0.169 for the first, -0.0353 for the second.

Compared with GAGCTGCC, TCGTCGCA is higher in “PBM E-score” value: -0.161 for the first, 0.126 for the second.

Compared with CCATAACC, GACACTGC is higher in “PBM E-score” value: -0.122 for the first, -0.0727 for the second.

First: AGCCAAAT
Second: AAATGTCG
The “PBM E-score” value of the first is higher: 0.102 for the first, -0.0162 for the second.

Going from CCGTCTGC to ATGCGGTA, the “PBM E-score” value falls from -0.122 to -0.133.

Compared with ACAACGAG, TATTACAA is higher in “PBM E-score” value: -0.0168 for the first, 0.307 for the second.

First: CTAGGGGA
Second: CAGTCACA
The “PBM E-score” value of the first is lower: -0.283 for the first, 0.0905 for the second.

Compared with AATCTCAT, ACACCAAA is higher in “PBM E-score” value: 0.166 for the first, 0.175 for the second.

Going from GCACGTGC to GCTGGAAC, the “PBM E-score” value rises from -0.192 to 0.106.

Compared with CGGATTCC, AGGTAACC is lower in “PBM E-score” value: -0.0535 for the first, -0.0673 for the second.

Going from GAGGGCGA to CTGATTCC, the “PBM E-score” value rises from -0.321 to -0.0421.

Compared with CAGAGGTC, CACGCCAC is higher in “PBM E-score” value: -0.228 for the first, -0.0948 for the second.

Going from AAGCACGA to AAAACAAA, the “PBM E-score” value rises from 0.156 to 0.176.

Compared with CGTCACGC, CCCGATCC is lower in “PBM E-score” value: -0.0176 for the first, -0.326 for the second.

Going from GCATTTAC to AATAGTTG, the “PBM E-score” value rises from 0.109 to 0.207.

First: AGTTGCCC
Second: GGGAAAAA
The “PBM E-score” value of the first is lower: 0.0108 for the first, 0.453 for the second.

Compared with AGCCCACC, ACATTGAT is higher in “PBM E-score” value: -0.26 for the first, 0.197 for the second.

Going from CGAGGAGA to ATCTGTGC, the “PBM E-score” value rises from -0.283 to -0.0169.

First: ACAGCGCG
Second: AGGAAGTC
The “PBM E-score” value of the first is higher: -0.0663 for the first, -0.107 for the second.

Compared with AAGGCAAG, AGTAGATA is higher in “PBM E-score” value: -0.0759 for the first, 0.311 for the second.

First: GCCCGACC
Second: AGTAATGA
The “PBM E-score” value of the first is lower: -0.274 for the first, 0.281 for the second.

Compared with CGCGCCTC, AAGTCAGT is higher in “PBM E-score” value: -0.0262 for the first, 0.0918 for the second.

Compared with GTTCCAAA, ACCTCGAC is lower in “PBM E-score” value: 0.146 for the first, -0.0537 for the second.

Going from CTAGGGTA to ATTCTATC, the “PBM E-score” value rises from -0.17 to 0.0825.

Going from AGGACACC to AATAGCAG, the “PBM E-score” value rises from -0.0835 to 0.00447.

Compared with AATCGGTG, GATCATGC is higher in “PBM E-score” value: -0.138 for the first, -0.043 for the second.

First: AGGTGGGA
Second: AATAAACA
The “PBM E-score” value of the first is lower: -0.224 for the first, 0.244 for the second.

First: ACCGCTGA
Second: GGCATATA
The “PBM E-score” value of the first is lower: -0.108 for the first, 0.16 for the second.

Compared with CCAAACGC, TGGGTAAA is higher in “PBM E-score” value: -0.0491 for the first, -0.0284 for the second.

Compared with ACGTTGTG, CGGCGACA is lower in “PBM E-score” value: -0.101 for the first, -0.235 for the second.

Going from AATGGGAG to GACTCCGA, the “PBM E-score” value falls from 0.0819 to -0.0632.

First: ACGTCTCC
Second: GAGAAATC
The “PBM E-score” value of the first is lower: -0.133 for the first, 0.248 for the second.

Going from ATCTTTGA to GCCGACAA, the “PBM E-score” value falls from 0.237 to -0.0857.

Compared with AAGCCCGT, AAGACTAG is higher in “PBM E-score” value: -0.245 for the first, -0.223 for the second.

First: GTCTTGAA
Second: CTTCAGCA
The “PBM E-score” value of the first is higher: 0.0898 for the first, -0.0778 for the second.

First: TAAAAACA
Second: ACCCGATG
The “PBM E-score” value of the first is higher: 0.221 for the first, 0.0183 for the second.

Compared with GCACAGCC, CGGAACCG is lower in “PBM E-score” value: -0.0782 for the first, -0.152 for the second.
